From publication PMC9861212 (Metabolites, 2022)
Where two headings read alike, the source gives them in different places.

Columns and labels:
[1] = single i.m. 25 mg/kg b.w.
[2] = Metabolite profile of SMZ in rats (LC-v.ARC/MS-IT-TOF); conditions: within 12 h after dosing
[3] = Metabolite profile of SMZ in pigs (LC-v.ARC/MS-IT-TOF); conditions: within 12 h after dosing
[4] = Metabolite profile of SMZ in chickens (LC-v.ARC/MS-IT-TOF); conditions: within 12 h after dosing
[5] = Tissue distribution and residue depletion in rats; conditions: rat, single i.m. 25 mg/kg
[6] = Tissue distribution and residue depletion in pigs; conditions: pig, i.m. 25 mg/kg twice a day for 7 d
[7] = Tissue distribution and residue depletion in chickens; conditions: chicken, oral gavage 25 mg/kg twice a day for 7 d
[8] = pigs; single i.m. 25 mg/kg b.w.; in one day
[9] = chickens; single oral gavage 25 mg/kg b.w.; in one day

With `Cc1cc(NS(=O)(=O)c2ccc(N)cc2)no1` [Compound S0, sulfamethoxazole] the Excreted through urine ([1]; rats (sexes together), within 14 d) was over 75%, the “Percentage of the individual metabolite compared with total concentration of SMZ-related compounds” value (shortened to “Percentage of the individual metabolite”) ([2]; rat feces) was 38.3% and the “Percentage of the individual metabolite” value ([2]; rat plasma) was 94.5%. For the same compound, the “Percentage of the individual metabolite” value ([2]; rat urine) was 48.4%, the “Percentage of the individual metabolite” value ([3]; pig bile) was 74.5% and the “Percentage of the individual metabolite” value ([3]; pig feces) was 12.1%. The “Percentage of the individual metabolite” value ([3]; pig plasma) was 80.3%, the “Percentage of the individual metabolite” value ([3]; pig urine) was 24.6% and the “Percentage of the individual metabolite” value ([4]; chicken Extra (feces/excreta)) was 69.6%. For the same compound, the “Percentage of the individual metabolite” value ([4]; chicken bile) was 88.2% and the “Percentage of the individual metabolite” value ([4]; chicken plasma (blood)) was 91.2%.

With `CC(=O)Nc1ccc(S(=O)(=O)Nc2cc(C)on2)cc1` [Compound S1, N4-acetyl-sulfamethoxazole] the “Concentration of the metabolites in kidney” value (shortened to “Concentration … in kidney”) ([5]; 0.25 d) was 4046 ± 584 µg/kg, the “Concentration … in kidney” value ([5]; 1 d) was 280 ± 79 µg/kg and the “Concentration … in kidney” value ([5]; 3 d) was 70 ± 21 µg/kg. For the same compound, the “Concentration … in kidney” value ([6]; 0.5 d) was 8645 ± 987 µg/kg, the “Concentration … in kidney” value ([6]; 3 d) was 308 ± 56 µg/kg and the “Concentration … in kidney” value ([6]; 7 d) was 93 ± 33 µg/kg. For the same compound, the “Concentration … in kidney” value ([6]; 14 d) was 38 ± 11 µg/kg, the “Concentration … in kidney” value ([7]; 0.25 d) was 234 ± 87 µg/kg and the “Concentration … in kidney” value ([7]; 3 d) was 89 ± 34 µg/kg.

For `[3H]c1cc(N)ccc1S(=O)(=O)Nc1cc(C)on1` [[^3H]-SMZ, 2-[^3H]-sulfamethoxazole], the “Cumulative excretion recovery rate” value [8] was 83%, the “Cumulative excretion recovery rate” value [9] was 75% and the “Recovery of total radioactivity in urine” value ([1]; male rats, 0–14 d) was 75.32 ± 4.54%. For the same compound, the “Cumulative excretion recovery rate” value ([1]; rats, in one day) was 83%.
